Some of the results follow. At the low end of the ranking the order means little.
Tested on: T1, GST-NbGlk1(82-244)
T1 sequence: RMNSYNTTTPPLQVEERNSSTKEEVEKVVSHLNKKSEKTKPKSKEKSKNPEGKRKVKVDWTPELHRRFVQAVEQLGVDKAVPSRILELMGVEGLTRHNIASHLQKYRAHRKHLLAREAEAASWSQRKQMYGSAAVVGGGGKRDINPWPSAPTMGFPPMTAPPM
Assay: protein-binding microarray;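 also: rank-based score ranging −0.5 to +0.5 with E above 0.45 taken as significant binding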
Conditions: NbGlk1 is a Golden2-like transcription factor of Nicotiana benthamiana; high values mean tight binding; most listed sequences are background and not binding sites; double strand, one strand shown

Row | Sequence | binding signal [E-score]
1 | AGGAATTG | 0.0512
2 | AATTCCAA | 0.141
3 | AGCTCTCC | -0.312
4 | AGGGCCCA | -0.199
5 | ACCATTCT | 0.017
6 | AAAGGAGG | -0.208
7 | AAGAAATA | 0.222
8 | ATGAGGGG | -0.173
9 | AGCGCAGG | -0.181
10 | ACTTATAG | 0.0307
11 | ACTGATGA | -0.0176
12 | AGGATCTG | 0.337
13 | ATCCGCCG | 0.216
14 | AACAAAAT | 0.353
15 | AGTTGTTC | -0.0747
16 | ACAGGGGT | -0.0899
17 | AGTGAAAA | 0.128
18 | CACGCGCA | 0.0023
19 | ATAGCCTG | -0.145
20 | ACCTTACG | -0.182
21 | AGTGGCAA | -0.0754
22 | ACGATAAA | 0.0605
23 | CACAAGCC | -0.278
24 | AAACCGTG | -0.0471
25 | AATTTTAT | 0.18

Row | Sequence | binding signal [E-score]
26 | AGAATATC | 0.435
27 | AATGCACA | 0.0611
28 | ATGACCCG | -0.154
29 | ACTCTGTC | -0.143
30 | AAGACTAG | -0.0102
31 | AATACAGT | -0.00366
32 | ATTTACTA | 0.185
33 | AGTTGTTA | 0.108
34 | AGAACTTA | -0.0216
35 | AGCGGCAT | -0.218
36 | ATACGTCG | 0.0921
37 | AAATCAAG | 0.318
38 | ATGGATCC | 0.164
39 | AGAGAGGA | 0.00572
40 | CAGACTGA | -0.0507
41 | AAAGGACG | -0.0719
42 | ACATTTAC | 0.0766
43 | AACCCTGC | -0.127
44 | ATGTCTTA | -0.0318
45 | AGCGATTG | 0.168
46 | AGGGGGCC | -0.192
47 | AGACCTTA | -0.192
48 | AGACGCTA | -0.126
49 | AATGACTC | 0.00883
50 | CAAAGTCC | -0.242

Row | Sequence | binding signal [E-score]
51 | AAGCGCCC | -0.26
52 | CAAATGAC | 0.0196
53 | AAAGCCGC | -0.215
54 | CACACAGC | -0.0626
55 | CACAAAGC | -0.0957
56 | AAGCAGTA | 0.0483
57 | CAACTTAG | -0.0454
58 | ATCCACCC | 0.255
59 | ACATGTTA | -0.0491
60 | AAGCTACT | -0.233
61 | CACTGGGG | -0.216
62 | AGGAGTTG | -0.0633
63 | AACCGAGC | -0.253
64 | AAACGGTC | -0.179
65 | AGGAACTC | -0.282
66 | AGATACTC | 0.368
67 | AATTTTAC | 0.105
68 | AGTCATAT | 0.0488
69 | ATAGGGGA | -0.116
70 | AATTTGAT | 0.119
71 | AGAGAGGG | -0.185
72 | ATACCCAA | 0.129
73 | AGGGTGAT | -0.0791
74 | ACACGTGC | -0.165
75 | ATCGCGCA | 0.358

Row | Sequence | binding signal [E-score]
76 | ATCCCTAA | 0.189
77 | ATCGGTCG | 0.0893
78 | CAAAATCC | 0.42
79 | AGGACAAT | 0.145
80 | ATTTTCAA | 0.262
81 | CAGCGACG | -0.142
82 | AACGTCCC | -0.205
83 | AGGCATGG | -0.0963
84 | ATTGCGTA | 0.367
85 | AACTCGAA | -0.0283
86 | ATGGTATC | 0.2
87 | AGCATAAT | 0.196
88 | AAACAACC | -0.0547
89 | ATGCTGCC | -0.174
90 | AGGTGTGC | -0.232
91 | AATCAATT | 0.213
92 | ACCGTCTC | -0.204
93 | ATGCCTCA | -0.0557
94 | ACCTTCTG | -0.177
95 | AAGTAAGA | 0.0937
96 | AGTTCATC | -0.193
97 | AACGCGGC | -0.137
98 | ATCATAGA | 0.214
99 | AATTAAGG | 0.086
100 | AAATGATC | -0.0232

Row | Sequence | binding signal [E-score]
101 | ATACAGTA | 0.138
102 | CAGAAAGC | -0.168
103 | AATGCCAT | -0.146
104 | AGGGCTTG | -0.297
105 | CAAGCACA | -0.187
106 | ATCTTTCG | 0.194
107 | ACTCTCAG | -0.154
108 | ACAAAGGT | -0.178
109 | ACGGCGAT | 0.07
110 | AACGCCTC | -0.114
111 | ACTTGTTC | -0.174
112 | ACGCGTTC | -0.158
113 | CAATTCTG | 0.11
114 | ACTCTTTA | 0.0474
115 | AGCCCTCA | -0.216
116 | CACAAAGG | -0.0927
117 | AGCGCAAT | 0.303
118 | CACAGTGC | -0.191
119 | CAGCATGA | -0.122
120 | AACCTTTG | -0.0599
121 | ATCCCTGG | 0.0692
122 | AGCGAATC | 0.459
123 | AGGTTCGG | -0.046
124 | ACTAACTG | -0.0666
125 | ACGCGAAC | 0.000953

Row | Sequence | binding signal [E-score]
126 | ACGCCCTA | -0.119
127 | ACTCGGAG | -0.178
128 | AAGTAACG | 0.0118
129 | ATTAAGCG | 0.0263
130 | ATATCTAA | 0.417
131 | CAATAATG | 0.0949
132 | ATTGTGAG | 0.163
133 | ACGGGGCG | -0.146
134 | ACCCTGCT | -0.216
135 | AGGCAAAA | -0.0744
136 | ACCACCAG | -0.123
137 | ACGGCAGT | -0.229
138 | CACATAAG | -0.0043
139 | AAAACTCA | -0.0461
140 | AGGGAGCC | -0.262
141 | AAGCATGT | -0.0505
142 | AAAGAAGA | -0.0524
143 | CAACGCGA | -0.00243
144 | AGAATCAC | 0.373
145 | ACTGAGTA | -0.0132
146 | AACTAACC | -0.198
147 | ACAGCCAA | -0.0295
148 | AATATCTA | 0.402
149 | AGTATATA | 0.227
150 | AAACTGAA | 0.0759

Row | Sequence | binding signal [E-score]
151 | AGAACCAC | -0.0682
152 | ATCTCGCA | 0.324
153 | AGGTTCAA | -0.0851
154 | ATGAGGCG | -0.153
155 | ACCAGAAA | 0.145
156 | AGTCTCGA | 0.0436
157 | ATTAAGAA | 0.201
158 | AGGTTCTG | -0.104
159 | AGATAGGG | -0.139
160 | CACCAGGC | -0.188
161 | CACCCGTA | -0.118
162 | AGTTCAGC | -0.106
163 | AGGTCACA | -0.223
164 | AAAAGGCG | -0.0954
165 | AGAAGGCA | -0.179
166 | AGGAGGAC | -0.355
167 | CAAAGTTA | -0.116
168 | CACCTCAA | -0.0678
169 | ATAGCCAA | -0.0377
170 | AGTGCTCC | -0.198
171 | AAAGGGCA | -0.0723
172 | AACTCACA | -0.0492
173 | ATCATTAG | 0.0988
174 | CAGACCAC | -0.299
175 | AAGTGTGG | -0.00372

Row | Sequence | binding signal [E-score]
176 | AGAGCTAG | -0.0258
177 | AAAGGCTG | -0.217
178 | AGCACGCG | -0.00665
179 | ACCTACTA | -0.136
180 | ACTACCAG | -0.262
181 | ATCTTGGG | 0.216
182 | ACCATTAG | -0.00593
183 | AAGGGTCT | -0.254
184 | AATAGCTA | -0.105
185 | ACTGCACA | -0.0176
186 | AAGACCAT | -0.0733
187 | ACCCGATC | 0.0202
188 | ACAGACTA | 0.0905
189 | CAGCCGTA | -0.0791
190 | AGTTATCC | -0.0632
191 | AAGCAGGA | -0.122
192 | CAAGGTGG | -0.181
193 | ACACTCAT | -0.0705
194 | AGATGCAA | 0.0749
195 | AGATTTAC | 0.349
196 | AAGGCATG | -0.144
197 | AATCAGGG | 0.313
198 | ATCATTTG | 0.0724
199 | AATGTAAC | -0.012
200 | ACCGAAAA | 0.0713

Row | Sequence | binding signal [E-score]
201 | ATGATTTA | 0.116
202 | AAATTATC | 0.108
203 | AGCTACCT | -0.223
204 | CACGCATC | -0.174
205 | ACCCCTCT | -0.194
206 | ATGTCCCG | -0.0596
207 | AGGGTCTC | -0.263
208 | AGAGCCAC | -0.204
209 | AAAGGGCT | -0.268
210 | AAGGACCC | -0.25
211 | ATGTATTC | 0.15
212 | ACATACGA | -0.0127
213 | CAAGCATC | -0.112
214 | ATTTAGGG | 0.0859
215 | AGGCATAT | 0.0639
216 | ATGTAACA | 0.0913
217 | ACATCACT | 0.00108
218 | ACCCGCTC | -0.233
219 | ACAGAGAA | 0.189

From PMC5836133
